Experimental data from the supplement of paper PMC10369915.
The other results are listed elsewhere or left out. No stated cut-off is given here; in the data, active = 3.2 or more and inactive = the rest. Only a few entries rise above the background.

B1: ZDHHC23_Y127_H132N_YF (peptide)
chain: VLALWYFFLTN
B2: ZAP70_Y506 (peptide)
chain: WPLKWYAPECI
B3: ZMYM2_Y1033 (peptide)
chain: VFGEEYEEQPR
B4: ZC3H18_Y372_YF (peptide)
chain: FADPFYDFEIE
B5: ZNF283_Y627 (peptide)
chain: TGEKLYQRKEF
B6: ZBTB5_Y118 (peptide)
chain: KACKHYLTTRT
B7: ZC3H18_Y367_YF (peptide)
chain: TVLEPYADPFF
B8: ZNF236_Y644 (peptide)
chain: QFFQSYFNNNF
B9: ZNF283_Y627_R629H (peptide)
chain: TGEKLYQHKEF
B10: ZFPL1_Y215_R218Q (peptide)
chain: APRKVYDTQDD
B11: ZNF445_Y428_Y428C (peptide)
chain: MSSHHCDYKKY
B12: ZC3H18_Y371_A368T_YF (peptide)
chain: PFTDPYFDFEI
B13: ZNF445_Y433_Y428C_YF (peptide)
chain: CDFKKYGKGLR
B14: ZNF100_Y6 (peptide)
chain: MDDPRYGMCPL
B15: ZBED5_Y476 (peptide)
chain: LLRLAYLADIF
B16: ZC3H18_Y367_A368T_YF (peptide)
chain: TVLEPYTDPFF
B17: ZC3H18_Y367 (peptide)
chain: TVLEPYADPYY
B18: ZNF445_Y433 (peptide)
chain: YDYKKYGKGLR

Each binder was assayed against SHP2 C-SH2 domain E139D (assay: enrichment score (SH2-bound / input frequency) (ratio); bacterial display of known human phosphotyrosine sites (pTyr-Var adds point mutants) read by sequencing; higher = stronger binding; tyrosines were phosphorylated by kinases first). Details: peptide library: pTyr-Var.
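Further: displayed peptides selected on beads carrying the immobilized SH2 domain, with library peptides lacking any tyrosine serving as negative controls.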

Enrichment score, active:
B6 3.48
B15 4.1

Enrichment score, inactive:
B1 2.92
B2 1.22
B3 0.822
B4 0.693
B5 0.606
B7 0.548
B8 1.53
B9 0.841
B10 0.378
B11 2.31
B12 1.1
B13 0.886
B14 0.711
B16 0.881
B17 1.49
B18 1.35

Each binder was assayed against SHP2 C-SH2 domain wild-type in the same assay as above. Details: peptide library: pTyr-Var.

Enrichment score, active:
B6 3.2
B15 3.27

Enrichment score, inactive:
B1 2.94
B2 1.56
B3 0.565
B4 0.65
B5 0.593
B7 0.534
B8 1.28
B9 0.83
B10 0.486
B11 1.68
B12 0.755
B13 1.07
B14 0.882
B16 0.744
B17 0.835
B18 1.42

Each binder was assayed against SHP2 N-SH2 domain L43F in the same assay as above. Details: peptide library: pTyr-Var.

Enrichment score, inactive:
B1 2.57
B2 1.68
B3 0.599
B4 0.737
B5 0.59
B7 0.639
B8 1.54
B9 0.77
B10 0.412
B11 1.83
B12 0.883
B13 0.834
B14 0.823
B16 1.9
B17 0.929
B18 1.26

Enrichment score, active:
B6 3.29
B15 3.78

These binders were tested against SHP2 N-SH2 domain T42A in the same assay as above. Details: peptide library: pTyr-Var.

Enrichment score, inactive:
B1 2.77
B2 1.35
B3 0.626
B4 0.564
B5 0.65
B6 2.7
B7 0.749
B8 1.43
B9 0.616
B10 0.424
B11 1.53
B12 0.864
B13 0.704
B14 0.697
B15 2.73
B16 1.72
B17 0.693
B18 1.39

Each binder was assayed against SHP2 N-SH2 domain T52S in the same assay as above. Details: peptide library: pTyr-Var.

Enrichment score, inactive:
B1 1.96
B2 1.35
B3 0.795
B4 0.672
B5 0.584
B7 0.713
B8 1.12
B9 0.658
B10 0.529
B11 2.09
B12 0.781
B13 0.771
B14 0.557
B16 2.05
B17 1.11
B18 1.52

Enrichment score, active:
B6 3.69
B15 4.52

The binders below were run against SHP2 N-SH2 domain wild-type in the same assay as above. Details: peptide library: pTyr-Var.

Enrichment score, inactive:
B1 3.12
B2 1.55
B3 0.734
B4 0.778
B5 0.629
B6 2.66
B7 0.753
B8 1.3
B9 0.769
B10 0.621
B11 1.65
B12 1.2
B13 0.997
B14 0.978
B16 0.835
B17 1.22
B18 1.22

Enrichment score, active:
B15 3.62
